Consider 66 compounds from ChEMBL document CHEMBL1201862, “PubChem BioAssay data set” (2004).

“And” between values parts separate entries of the source, which are not always exact repeats. Equal values may be shown once. Where a name gives a salt, the structure may show the parent alone.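 How tested: cells in 96-well plates exposed to compound for 48 hours at five concentrations. GI50 = concentration required for 50% inhibition of growth.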 The source made the active and inactive calls. No stated cut-off is given here; in the data, active = GI50 up to about 1.1 µM and inactive = higher.

The subject of this assay is NCI-H322M. The assay can be described thus: growth of human tumour cells (NCI), 48 h.
Take `Cc1nccc2c1[nH]c1cc(O)ccc12` [HARMOL HYDROCHLORIDE]: the GI50 is inactive: 42.1 µM.
As to `C=C1C(=O)O[C@@H]2C[C@@H](C)[C@@H]3C=CC(=O)[C@@]3(C)[C@@H](O)[C@H]12` [HELENALIN], the GI50 was inactive: 2.33 µM.
As for `C[C@@H]1O[C@@H](O[C@H]2CC[C@]3(C=O)[C@H]4CC[C@]5(C)[C@@H](c6ccc(=O)oc6)CC[C@]5(O)[C@@H]4CC[C@]3(O)C2)[C@H](O)[C@H](O)[C@H]1O[C@@H]1O[C@H](CO)[C@@H](O)[C@H](O)[C@H]1O` [HELLEBRIN], the GI50 is active: 0.0118 µM.
Turning to `CNc1nc(OC)c2c(n1)n(C)c[n+]2C` [HETEROMINE B], the GI50 was inactive: > 100 µM.
For `COc1ccc(-c2oc3cc(OC)c(OC)c(OC)c3c(=O)c2OC)cc1OC` [HEXAMETHOXYFLAVONE], the GI50 is inactive: > 100 µM.
The same measure for `CCCCCCc1ccc(O)cc1O` [HEXYLRESORCINOL]: inactive: > 100 µM; for `CC(C)c1cccc(=O)c(O)c1` [HINOKITIOL]: inactive: 11.9 µM; for `COc1c(O)cc2oc(-c3ccc(O)cc3)cc(=O)c2c1O` [HISPIDULIN]: inactive: 49.1 µM.
`CCN(CC)CCNc1ccc(CO)c2sc3ccccc3c(=O)c12` [HYCANTHONE MESYLATE]: the GI50 was inactive: 11 µM.
The same measure for `O=C1CNC(=O)N1` [HYDANTOIN]: inactive: > 1120 µM; for `C[C@]12CCC(=O)C=C1CC[C@@H]1[C@@H]2[C@@H](O)C[C@@]2(C)[C@H]1CC[C@]2(O)C(=O)COC(=O)CCC1CCCC1` [HYDROCORTISONE CYPIONATE]: inactive: > 100 µM.
For the compound `Cn1c2c3ccccc3nc-2c(O)c2ccccc21` [HYDROXYCRYPTOLEPINE], the GI50 was inactive: 84.7 µM.
As to `CC1=C2C(=C[C@@](C)(CO)[C@@H]2O)C(=O)[C@](C)(O)C12CC2` [ILLUDIN], the GI50 is active: 0.0194 µM.
With `CCCCCCCCCCCCCCCCSCC(COC)COP(=O)([O-])OCC[N+](C)(C)C` (stereo unspecified) [ILMOFOSINE], the GI50 was inactive: 15.3 µM.
For the compound `Cn1cc(C[C@@H](N)C(=O)O)c2ccccc21` [INDOXIMOD], the GI50 is inactive: > 100 µM.
`CCCCCC/C=C\CCCCCCCCCC1=CC(=O)C=C(OC)C1=O` [IRISQUINONE A]: the GI50 was inactive: 6.92 µM.
In the case of `CC1=C(CO)C2=C(C)C3(CC3)[C@@](C)(O)C(=O)C2=C1` [IROFULVEN], the GI50 is active: 0.226 µM.
With `Cc1cc(O)c2c(c1O)C(=O)c1cccc(O)c1C2=O` [ISLANDICIN], the GI50 is inactive: > 100 µM.
`CC(C)C(N)=O` [ISOBUTYRAMIDE]: the GI50 is inactive: > 5000 µM.
On to `O=C1Nc2ccccc2/C1=C1\C(=O)Nc2ccccc21` [ISOINDIGO], for which the GI50 was inactive: 36.5 µM.
With `Nc1nc2[nH]c(=O)cnc2c(=O)[nH]1` [ISOXANTHOPTERIN], the GI50 is inactive: > 125 µM.
Consider `CC1=C(CO)C(=O)O[C@@H]([C@@H](C)[C@H]2CC[C@H]3[C@@H]4C[C@@H](O)[C@@]5(O)CC=CC(=O)[C@]5(C)[C@H]4CC[C@]23C)C1` [JABOROSALACTONE D], for which the GI50 is inactive: 36.4 µM.
With `COC(=O)CC1(O)C=CC(=O)C=C1` [JACARANONE], the GI50 was inactive: 15.5 µM.
Consider `CC1=C2C(=O)[C@H]3[C@@H](CC=C4C[C@@H](O)CC[C@@]43C)[C@@H]2CC[C@]12O[C@@H]1C[C@H](C)CN[C@H]1[C@H]2C` [JERVINE], for which the GI50 was inactive: > 43.4 µM.
The same measure for `CC1=C2O[C@]3(O)C=C2C(=C(O)C1=O)[C@@H]1O[C@H](CC[C@H](C)/C=C(\C)C[C@@H](C)C[C@@H]3C)[C@H](C)[C@H](O)[C@H]1C` [KENDOMYCIN]: inactive: 1.3 µM; for `CC(=O)N1CCN(c2ccc(OCC3COC(Cn4ccnc4)(c4ccc(Cl)cc4Cl)O3)cc2)CC1` (stereo unspecified) [KETOCONAZOLE]: inactive: 45 µM.
Turning to `COc1ccc(N)c(C(=O)CCNC(C)=O)c1` [KINURENAMINE], the GI50 was inactive: > 100 µM.
Consider `O=C1c2scnc2-c2nccc3c2c1nc1ccccc13` [KUANONIAMINE A], for which the GI50 was inactive: 1.41 µM.
On to `CCC(=O)NCCc1c2c3c(ccnc3c3ncsc13)-c1ccccc1N2` [KUANONIAMINE C], for which the GI50 is inactive: 1.37 µM.
Take `C=C(C)[C@H]1CC23C(=O)C(C(=O)C(C)C)=C(O)[C@](C)(C[C@H]2C1(C)C)C3=O` [LALIBINONE B]: the GI50 is inactive: 19.5 µM.
For `CC(=O)O[C@H]1C[C@H](O[C@H]2[C@@H](O)C[C@H](O[C@H]3[C@@H](O)C[C@H](O[C@H]4CC[C@@]5(C)[C@H](CC[C@@H]6[C@@H]5C[C@@H](O)[C@]5(C)[C@@H](C7=CC(=O)OC7)CC[C@]65O)C4)O[C@@H]3C)O[C@@H]2C)O[C@H](C)[C@H]1O[C@@H]1O[C@H](CO)[C@@H](O)[C@H](O)[C@H]1O` [LANATOSIDE C] the value was active: 0.0532 µM.
`CC[C@@H](C(=O)[C@@H](C)[C@@H](O)[C@H](C)CCc1ccc(C)c(O)c1C(=O)O)[C@H]1O[C@](CC)([C@H]2CC[C@](O)(CC)[C@H](C)O2)C[C@@H]1C` [LASALOCID A SODIUM]: the GI50 was inactive: 2.19 µM.
Consider `C/C1=C/C(=O)O[C@@H]2C[C@@H](CC[C@H](C)/C=C\C=C\CC1)O[C@@](O)([C@@H]1CSC(=O)N1)C2` [LATRUNCULIN A], for which the GI50 is inactive: 3.37 µM.
For `O=C(O)c1cc(N(Cc2ccccc2O)Cc2cc(O)ccc2O)ccc1O` [LAVENDUSTIN A] the value was inactive: > 100 µM.
In the case of `O=C(O)c1cc(NCc2cc(O)ccc2O)ccc1O` [LAVENDUSTIN C], the GI50 is inactive: > 100 µM.
For `O=C(O)CCCCC1CCSS1` (stereo not drawn) [LIPOIC ACID, ALPHA] the value was inactive: > 100 µM; for `O=C1c2ccccc2-c2c3c(cc4ccnc1c24)OCO3` [LIRIODENINE], inactive: 6.01 µM and inactive: 11.2 µM.
For `O=C1O/C(=C\C=C\CO)C=C1/C=C/CO` [LISSOCLINOLIDE] the value was inactive: 31.2 µM.
Turning to `O=NN(CCCl)C(=O)NC1CCCCC1` [LOMUSTINE], the GI50 is inactive: 83.4 µM.
For `COc1c2c(c(CC=C(C)C)c3oc(=O)c(-c4ccc(O)cc4)c(O)c13)OC(C)(C)C=C2` [LONCHOCARPIC ACID], the GI50 is inactive: 27.2 µM.
Regarding `CCOC(=O)N1CCC(=C2c3ccc(Cl)cc3CCc3cccnc32)CC1` [LORATADINE], the GI50 is inactive: 11.1 µM.
For `O=C1c2c(O)cccc2-c2nn(CCNCCO)c3ccc(NCCNCCO)c1c23` [LOSOXANTRONE HYDROCHLORIDE] the value was active: 0.443 µM; for `C=C1C(=O)[C@]23C[C@H]1C[C@@H](O)[C@H]2[C@]1(COC3=O)[C@@H](OC(C)=O)CC[C@@](C)(COC(C)=O)[C@H]1C=O` [LOXOTHYRIN A], inactive: > 50 µM; for `CCN(CC)CCNc1ccc(C)c2sc3ccccc3c(=O)c12` [LUCANTHONE HYDROCHLORIDE], inactive: 2.79 µM.
`C=C(C)[C@@H]1CC[C@]2(C)CC[C@]3(C)[C@H](CC[C@@H]4[C@@]5(C)CC[C@H](O)C(C)(C)[C@@H]5CC[C@]43C)[C@@H]12` [LUPEOL]: the GI50 is inactive: > 100 µM.
For `O=c1cc(N2CCOCC2)oc2c(-c3ccccc3)cccc12` [LY-294002] the value was inactive: 12.7 µM; for `Cc1occc(=O)c1O` [MALTOL], inactive: > 100 µM; for `CC(C)=CCC/C(C)=C/Cc1cc(/C=C/c2cc(O)c(CC=C(C)C)c(O)c2)cc(O)c1O` [MAPPAIN], inactive: 11.2 µM.
The same measure for `C=C1C(=O)[C@]23[C@H](O)[C@H]1CC[C@H]2[C@@]12CO[C@@]3(O)C[C@@H]1C(C)(C)CC[C@@H]2O` [MEGATHYRIN A]: inactive: 9.91 µM; for `COc1c(-c2ccc3c(c2)OCO3)oc2cc3c(c(OC)c2c1=O)OCO3` [MELITERNATIN]: inactive: 12.6 µM.
The same measure for `N[C@@H](Cc1ccc(N(CCCl)CCCl)cc1)C(=O)O` [MELPHALAN HYDROCHLORIDE]: inactive: 82.4 µM; for `O=C1C(O)=C(CCCCCCCCC2CCCCC2)C(=O)c2ccccc21` [MENOCTONE]: inactive: 15.7 µM; for `COc1ccc(O)cc1` [MEQUINOL]: inactive: > 100 µM.
Consider `c1ccc2c(c1)Sc1ccccc1N2CC1CN2CCC1CC2` (stereo unspecified) [MEQUITAZINE], for which the GI50 is inactive: 11.5 µM.
Consider `CN1CCCCC1CCN1c2ccccc2Sc2ccc([S+](C)[O-])cc21` (stereo unspecified) [MESORIDAZINE], for which the GI50 was inactive: > 100 µM.
As for `CCOS(C)(=O)=O` [METHANESULFONIC ACID ETHYL ESTER], the GI50 is inactive: > 100 µM.
For `COS(C)(=O)=O` [METHANESULFONIC ACID METHYL ESTER] the value was inactive: > 2 µM; for `CN1CCC(CN2c3ccccc3Sc3ccccc32)C1` (stereo unspecified) [METHDILAZINE HYDROCHLORIDE], inactive: 17.2 µM.
Turning to `CCN(CC)C(=S)SC` [METHYLDIETHYL CARBAMODITHIOATE], the GI50 is inactive: > 100 µM.
Regarding `CC[C@H](C)C(=O)O[C@H]1CCC=C2C=C[C@H](C)[C@H](CC[C@@H]3C[C@@H](O)CC(=O)O3)[C@H]21` [MEVASTATIN], the GI50 is inactive: 44.2 µM.
As for `Clc1ccc(COC(Cn2ccnc2)c2ccc(Cl)cc2Cl)c(Cl)c1` (stereo unspecified) [MICONAZOLE], the GI50 is inactive: 13.2 µM.
Consider `CC(C)C1=Cc2ccc3c(c2C(=O)C1=O)CCCC3(C)C` [MILTIRONE], for which the GI50 is inactive: 15.5 µM.
The same measure for `NC(Cn1ccc(=O)c(O)c1)C(=O)O` (stereo unspecified) [MIMOSINE]: inactive: > 100 µM; for `CN(C)CCN1C(=O)c2cccc3cc([N+](=O)[O-])cc(c23)C1=O` [MITONAFIDE]: inactive: 1.19 µM.
For `COc1cc(C(=O)O)cc2c1[nH]c1ccccc12` [MUKOEIC ACID], the GI50 was inactive: > 25 µM.
Turning to `O=c1c(O)c(-c2cc(O)c(O)c(O)c2)oc2cc(O)cc(O)c12` [MYRICETIN], the GI50 is inactive: 30.2 µM.
